Results reported in PubChem BioAssay AID686978 (National Center for Advancing Translational Sciences (NCATS), 2013).
Values joined by “and” are separate entries in the source; they are usually repeats but may differ in a detail not shown here. Equal entries are not always repeated. The whole screen tested about 420,000 compounds, of which about 64,000 (15%) were called active. The inconclusive results got no clear call from the source; some entries with a clear call stand among them for comparison. Calls come from the whole dose curve; as a rule, active = well fitted inhibition curve with a large enough effect; inconclusive = small, poorly fitted or top-dose-only effect; inactive = flat fitted curve, though single readings scatter. A potency beside an inconclusive call is a rough fit, not a confirmed value.

Assay: qHTS for Inhibitors of human tyrosyl-DNA phosphodiesterase 1 (TDP1): qHTS in cells in absence of CPT; note: nearly all actives have a fitted effect of over 55% in size
Conditions: DT40 Tdp1-/- hTDP1 cells, no CPT, ATP luminescence, 48 h; activity change, negative = growth inhibition: at 46.2 µM (top of the series) unless noted
Summary of the method: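 No-CPT arm: Tdp1-/-;hTDP1 DT40 cells (400/well) plus compounds, incubated ≥48 hr at 37 °C. Readout CellTiter-Glo luminescence.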
% is set by controls: 0 for no effect and ±100 for the full control effect; potency is the fitted concentration of half-maximal effect; tags give direction and shape of the fitted curve.

With `COc1ccc(N2CCN(C(=O)c3ccc4c(c3)N(Cc3cc(C)ccc3C)C(=O)c3ccccc3S4=O)CC2)cc1` (centres undefined) as the molecule, how does the Potency read?
The Potency was active: 11.6 µM.

With `O=S(=O)(c1ccccc1)N1N=C(c2ccc(O)cc2)CC1c1ccco1` (centres undefined) as the molecule, how does the Potency read?
Its Potency is active: 7.31 µM.

For `COc1cc(/C=C/C(=O)OCC(=O)NC2CCCCCCC2)ccc1O`, which “activity change, negative = growth inhibition” value is on record?
The value was inactive: -27%.

Which Potency does the source give for `Cc1ccccc1C(=O)Nc1cccc(-c2cn3cccnc3n2)c1` here?
The Potency was inconclusive: 23.1 µM [inhibitor, single point].

Which Potency does the source give for `COc1ccc(C(O)c2ncc(-c3ccccc3C)[nH]2)cc1F` (centres undefined) here?
Its Potency is inconclusive: 29.1 µM [inhibitor, single point].

For `OCC[C@@H]1C[C@@H](O)[C@H](O)[C@]2(CCc3ccccc3CO2)O1`, which “activity change, negative = growth inhibition” value is on record?
The value was inactive: 2.47%.

With `O=C(Nc1cc(C(F)(F)F)ccc1N1CCOCC1)C1CCCO1` (centres undefined) as the molecule, how does the “activity change, negative = growth inhibition” value read?
Its value is inactive: -17.4%.

For `COCC(C)NC(=O)CSc1nc2ccccc2c(=O)n1CCc1ccc(S(N)(=O)=O)cc1` (centres undefined), which Potency is on record?
Its Potency is inconclusive: 14.6 µM [inhibitor, single point].

With `O=c1c2sccc2nc(SCc2cc(=O)n3ccccc3n2)n1-c1ccc(Br)cc1` as the molecule, how does the Potency read?
Its Potency is inconclusive: 18.4 µM [inhibitor, single point].

With `O=C(NNS(=O)(=O)c1ccccc1)c1ccccc1-n1cccc1` as the molecule, how does the “activity change, negative = growth inhibition” value read?
Its value is inactive: 23.9%.

With `O=C(NCC(c1ccco1)N1CCN(c2ccc(F)cc2)CC1)C(=O)NC1CCCCC1` (centres undefined) as the molecule, how does the Potency read?
The Potency was inconclusive: 4.61 µM [inhibitor, full curve, poor fit].

Which Potency does the source give for `CC(C)C1C(=O)N(Cc2cn(Cc3ccco3)nn2)CCS(=O)(=O)N1Cc1ccc(-c2ccc(Cl)cc2)cc1` (centres undefined) here?
Its Potency is active: 6.51 µM.

For `Cn1cc(S(=O)(=O)CC(=O)N2CCc3ccccc32)c2ccccc21`, which Potency is on record?
Its Potency is inconclusive: 10.3 µM [inhibitor, partial curve].

Which Potency does the source give for `Cc1cc2nc3c(c(=O)n2[nH]1)CCCC3` here?
The Potency was inconclusive: 13 µM [inhibitor, partial curve].

With `O=C(NCc1ccc(F)cc1)c1ccc2c(c1)S(=O)(=O)c1ccccc1C2=O` as the molecule, how does the Potency read?
Its Potency is inconclusive: 29.1 µM [inhibitor, single point].

For `CC(Oc1ccccc1)C(=O)Nc1nnc(S(=O)(=O)N2CCCCCC2)s1` (centres undefined), which Potency is on record?
The Potency was inconclusive: 18.4 µM [inhibitor, single point] and inconclusive: 29.1 µM [inhibitor, single point].

For `O=C(N=Nc1c(O)[nH]c2ccc([N+](=O)[O-])cc12)c1ccccc1Cl`, which Potency is on record?
Its Potency is inconclusive: 14.6 µM [inhibitor, partial curve].

With `CC1CCc2nc(NC(=O)c3ccco3)sc2C1` (centres undefined) as the molecule, how does the Potency read?
The Potency was inconclusive: 29.1 µM [inhibitor, single point].

Which “activity change, negative = growth inhibition” value does the source give for `COc1ccc(OCC(=O)NCc2ccc(Cl)cc2)cc1` here?
Its value is inactive: 0.436%.

Which Potency does the source give for `COc1ccccc1-c1c(C#N)c(N)nc2c1CCc1ccccc1-2` here?
Its Potency is active: 6.51 µM.

Which activity change, negative = growth inhibition does the source give for `COc1ccc(CC(=O)O/N=C(\N)Cc2cccc3ccccc23)cc1` here?
The activity change, negative = growth inhibition was inconclusive: -30.9% [inhibitor].

With `CN(C(=O)c1ccco1)c1nnc(-c2ccc(F)cc2)s1` as the molecule, how does the Potency read?
The Potency was inconclusive: 20.6 µM [inhibitor, single point].

For `Cc1ccc(NC(=O)CCNC(=O)c2ccc(Br)cc2)cc1S(=O)(=O)N1CCOCC1`, which Potency is on record?
Its Potency is inconclusive: 16.4 µM [inhibitor, single point].

For `CCC(=O)Nc1ccc(S(=O)(=O)N2CCc3ccccc32)cc1`, which “activity change, negative = growth inhibition” value is on record?
The value was inactive: -27.1%.

For `OCCN(CCO)c1ccc(C(c2ccc(Cl)cc2)c2ccc(N(CCO)CCO)cc2Cl)c(Cl)c1`, which activity change, negative = growth inhibition is on record?
The activity change, negative = growth inhibition was inconclusive: -32.3% [inhibitor].

Which Potency does the source give for `Cc1ccc(Oc2nc3c(c(=O)n(Cc4ccccc4Cl)c(=O)n3C)n2C)cc1C` here?
Its Potency is inconclusive: 20.6 µM [inhibitor, single point].

With `CCCC[C@@H]1CNC(=O)C(=O)N1CCc1cc(C(F)(F)F)cc(C(F)(F)F)c1` as the molecule, how does the activity change, negative = growth inhibition read?
Its activity change, negative = growth inhibition is inconclusive: -33.2% [inhibitor].

With `O=C(Cn1c(=O)cnc2ccccc21)Nc1cccc(S(=O)(=O)N2CCCCC2)c1` as the molecule, how does the Potency read?
The Potency was inconclusive: 25.9 µM [inhibitor, single point].

For `Cc1nc(NC(=S)NC(=O)COc2ccccc2Cl)ccc1Br`, which Potency is on record?
The Potency was inconclusive: 32.6 µM [inhibitor, single point].

For `O=S(=O)(c1cccs1)N1CCCc2ccccc21`, which Potency is on record?
Its Potency is inconclusive: 29.1 µM [inhibitor, single point].

With `CN(C)/C=C1/Nc2ccccc2C1=O` as the molecule, how does the Potency read?
The Potency was inconclusive: 18.4 µM [inhibitor, single point].

Which “activity change, negative = growth inhibition” value does the source give for `Cn1c(=S)ccc2ccccc21` here?
Its value is inactive: -26.6%.

Which Potency does the source give for `COc1ccc(/C=N/NC(=O)c2cc3c(OC)ccc(OC)c3[nH]2)cc1O` here?
The Potency was active: 0.206 µM.

For `COc1ccc(OCCCC(=O)OCC(=O)N2CCN(S(=O)(=O)c3ccc(C)cc3C)CC2)cc1`, which Potency is on record?
Its Potency is inconclusive: 18.4 µM [inhibitor, single point].

For `COc1ccc(NC(=O)C2Cc3c(-c4cccc(C(N)=O)c4)ccnc3O2)cn1` (centres undefined), which Potency is on record?
Its Potency is active: 11.6 µM.

With `CN1CCN(S(=O)(=O)c2ccc(Nc3ccc(F)cc3)nc2)CC1` as the molecule, how does the “activity change, negative = growth inhibition” value read?
Its value is inactive: -2.36%.

Which Potency does the source give for `CCCCCCCCOc1ccccc1C(=O)Nc1ccc(C(=O)OCC[N+](C)(CC)CC)cc1` here?
Its Potency is inconclusive: 29.9 µM [inhibitor, single point].

Which Potency does the source give for `CN1C(=O)c2ccccc2Cc2c(NCc3ccccc3)ncnc21` here?
The Potency was inconclusive: 29.1 µM [inhibitor, single point].

For `CCC(C)(C)NC(=O)Cn1c(-c2ccccc2)cc(C(C)=O)c1C`, which Potency is on record?
The Potency was inconclusive: 29.1 µM [inhibitor, single point].

For `CCNC(=O)COC(=O)c1cccc(Br)c1`, which “activity change, negative = growth inhibition” value is on record?
The value was inactive: -5.42%.

For `COc1ccc(C(=O)N2CCC3(CCCN(C(=O)Nc4cccc(F)c4)C3)CC2)cc1`, which “activity change, negative = growth inhibition” value is on record?
The value was inactive: -15.9%.

For `O=C(Cn1ncc2c3ccccc3n(Cc3cccc(Cl)c3)c2c1=O)NCC1CCCO1` (centres undefined), which Potency is on record?
Its Potency is inconclusive: 29.1 µM [inhibitor, single point].

With `COc1ccc(S(=O)(=O)Nc2cc(C)c(O)cc2C(C)C)cc1` as the molecule, how does the Potency read?
Its Potency is inconclusive: 20.6 µM [inhibitor, partial curve, poor fit].

Which Potency does the source give for `Cc1ccc(-c2ccc(C(=O)NCc3ccc(Cl)cc3)o2)c2ccccc12` here?
Its Potency is inconclusive: 29.1 µM [inhibitor, single point].
